Screen size: about 48,000 compounds; about 450 (0.94%) were called active. About 19% were inconclusive and are not listed. The call rests on the fitted dose curve; in most records, active means well fitted inhibition curve with a large enough effect; inconclusive means small, poorly fitted or top-dose-only effect; inactive means no such curve, though single readings can be large or run the other way. The list shows a part of the results.
Assay: Primary qHTS for Identification of Small Molecule Inhibitors of Huntingtin Promoter Activity; further: nearly all actives have a fitted effect of over 50% in size
Details: HEK293 HTT promoter firefly luciferase reporter (activity 0% = vehicle and -100% = no light), 24 h; series mostly up to 57.5 µM; activity change, negative = inhibition: at the top concentration
Outline: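 Quantitative HTS used concentration series of up to 57.5 uM final on HEK293 luciferase reporter cells, 24 h at 37 degrees C. Readout was Dual-Glo firefly luminescence.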

Activity change, negative = inhibition, inactive:
O=C(CSc1nnc(NC(=O)NC2CCCCC2)s1)Nc1ccccc1F 15.7%, CCOC(=O)c1c(C)[nH]c(C)c1S(=O)(=O)NCC(=O)Nc1cccc(C(F)(F)F)c1 -24.7%, CC1CCCN(C(=O)Cn2c(=O)oc3cc(S(=O)(=O)N4CCCCC4)ccc32)C1 (stereo not given) -12.1%, Cc1ccc(-c2nnc(Nc3ccc(Br)cc3)c3ccccc23)cc1S(=O)(=O)N1CCOCC1 -12.2%, COc1ccc(-n2c(=O)c3sc4ccccc4c3n(CC(=O)Nc3cccc(C)c3)c2=O)cc1 5.02%, Cc1ccc(NC(=O)C(Cc2ccccc2)NS(=O)(=O)c2ccc3c(c2)oc(=O)n3C)c(Cl)c1 (stereo not given) -21%, CC1=C(C(=O)Nc2ccccc2C)C(c2cccnc2)n2nc(SCc3ccccc3)nc2N1 (stereo not given) -8.86%, CCOC(=O)N1CCc2c(sc3c2c(=O)n(CCc2ccccc2)c(=O)n3Cc2cc(C)ccc2C)C1 -7.91%, COCCNC(=O)Cn1cc(S(=O)(=O)Cc2ccccc2Cl)c2ccccc21 2.07%, CCOc1ccccc1NC(=O)c1cn(C2CCCC2)c(=O)c2c1c1ccccc1n2C -4.79%, COc1ccccc1NC(=O)C1=C(C)Nc2nc(SCc3ccccc3)nn2C1c1ccccn1 (stereo not given) -11%, CCN(CC)S(=O)(=O)c1ccc2c(c1)N(CC(=O)NCCc1ccc(OC)c(OC)c1)C(=O)CO2 -15.3%, Cc1nc2c(c(C)c1CCC(=O)Nc1cccc(C(F)(F)F)c1)c(=O)n(C)c(=O)n2C -9.47%, Cc1nnc(NC(=O)CSc2nccn2-c2cccc(Cl)c2)s1 -26.1%, COc1ccc(C(=O)Nc2ccccc2C(=O)OCc2cc(=O)n3c4c(sc3n2)CCCC4)cc1 -13.2%, O=C(CCC(=O)N1CC2CCCN2c2ccccc21)NCc1ccccc1Cl (stereo not given) -26.4%, COc1ccccc1CNc1nc2nc(C)c(Cl)c(C)n2n1 -16.9%, COC(=O)c1c(NC(=O)c2cccc(OC)c2)sc2c1CCC(C(C)(C)C)C2 (stereo not given) -24.5%, Cc1cccc(-c2nc(SCC(=O)Nc3cc(C)on3)c3c(=O)n(C)c(=O)n(C)c3n2)c1 -10.1%, COCCCNC(=O)c1ccc2c(c1)N=C(C)c1c(C)ccc(C)c1S2 -46.2%, COc1ccc(N2CCN(c3ccc(-c4nc(-c5ccccc5C)no4)cc3[N+](=O)[O-])CC2)cc1 2.9%, Cc1ccc(NC(=O)N2CCC(N3CCN(Cc4ccccc4)C(=O)C3=O)CC2)cc1Cl 0%, Cc1cccc(CNC(=O)C2CCCN(S(=O)(=O)c3cn(C)cn3)C2)c1 (stereo not given) -12.3%, CC(C)(C)[N+]([O-])=Cc1ccc(S(=O)(=O)O)cc1S(=O)(=O)O -5.93%, CCCCCn1c(=O)[nH]c2cc(C(=O)Nc3cc(OC)cc(OC)c3)ccc2c1=O -21.9%, Cc1ccc2oc(=O)c3cc(C(=O)N4CCN(c5ccccc5)CC4)sc3c2c1 5.45%, CN(C)S(=O)(=O)c1ccc2c(c1)N(CC(=O)NCc1ccccc1)C(=O)C1CCCCN21 (stereo not given) -7.57%, O=C(O)Cc1ccc(CCNS(=O)(=O)c2ccc(Cl)cc2)cc1 3.34%, Cc1ccccc1CCNC(=O)c1ccc2c(c1)c(C)c(C)n2C 28.9%, CCCCCNC(=O)c1c[nH]c2ccc(S(=O)(=O)N3CCC(C)CC3)cc2c1=O -13.7%, CCC1CN(C(=O)NCc2ccc(C)cc2)c2cc(C)ccc2O1 (stereo not given) -11.3%, Cc1nn(S(=O)(=O)c2ccc(C(C)C)cc2)c(C)c1S(=O)(=O)N1CCCCCC1 -7.35%, Cc1ccc(NC(=O)CSc2nc3ccccc3nc2Cc2ccccc2F)cc1F -4.31%, COc1ccc(-c2nsc(NC(=O)COc3ccc(C)c(C)c3)n2)cc1 7.33%, CCc1ccccc1NC(=O)C1(S(=O)(=O)c2ccc(Cl)cc2)CC1 -11.2%, Cc1ccc(C)c(N2CCN(C(=O)c3cc4ccc5cccnc5c4[nH]3)CC2)c1 -6.26%, Cc1cc(C)cc(NC(=O)CN2C(=O)CSc3ccc(S(=O)(=O)N(C)C)cc32)c1 -24.8%, CCOC(=O)c1c(C)oc2ncnc(Nc3ccc(F)cc3Cl)c12 -12.3%, COc1ccc(-c2oc3ncn4nc(-c5cccc(C)c5)nc4c3c2-c2ccc(OC)cc2)cc1 -10.2%, Cc1ccc(CN2C(=O)c3ccccc3Sc3ccc(C(=O)NC4CCCCC4)cc32)cc1 44.8%, COc1cc(C(=O)Nc2nnc(S(=O)(=O)N(C)c3ccccc3)s2)cc(OC)c1OC -7.62%, Cc1ccc(-c2nc3n(n2)C(c2ccccc2C)C=C(c2ccc(Cl)cc2)N3)cc1 (stereo not given) -13.5%, COc1ccccc1CNC(=O)CS(=O)(=O)c1cccc2nsnc12 -9.46%, COc1ccc(OC)c(NC(=O)CCn2cnnn2)c1 -5.04%, COc1ccc(CCNC(=O)c2cc(-c3ccc(C)cc3)nc3n[nH]c(-c4ccccc4)c23)cc1OC -17.4%, COc1ccc(CNC(=O)c2cc3c(=O)[nH]c4ccc(C)cc4c3s2)c(OC)c1 -5.73%, Cc1ccn2c(Nc3ccc(F)cc3)c(-c3ccc(C)o3)nc2c1 -1.68%, O=C(NC1CC(=O)N(c2ccc(F)cc2)C1)c1cccs1 (stereo not given) 5.05%, CC(C)OC(=O)C1=CN(C(=O)c2ccc(F)c(F)c2)CC(C)(C)c2c1[nH]c1ccccc21 10.7%, COC(=O)[C@@H]1CC2=CC(=O)CC[C@]2(C)[C@@]23O[C@@H]2C[C@@]2(C)[C@@H](CC[C@@]24CCC(=O)O4)[C@H]13 2.57%, COc1ccc(CNC(=O)C2CCN(c3nc4ccccc4[nH]3)CC2)c(OC)c1 5.99%, CN1CCN(C(c2ccccc2)c2ccccc2)CC1 0.0625%, CCCCOc1ccc(OC(=O)c2sc3ncn(Cc4cccc(F)c4)c(=O)c3c2C)cc1 -7.13%, COc1cc2nc(SCc3ccc(Cl)cc3)n3nc(CCn4nc(C)cc4C)nc3c2cc1OC -4.73%, CC(=O)c1sc2c(c1C)c(=O)n(-c1ccc(Cl)cc1)c(=O)n2Cc1cc(=O)n2cc(Cl)ccc2n1 -4.93%, Cc1nn(C(=O)c2ccc(Cl)cc2)c(C)c1Sc1ccc(Cl)cc1 -1.36%, NC(=O)c1nnn(Cc2cc(Cl)c(C(=O)c3ccc(Cl)cc3)c(Cl)c2)c1N 1.93%, CCCSc1nc2sc3c(c2c(=O)n1-c1ccccc1)CCC(C)C3 (stereo not given) -14.3%, Cc1cc(NC(=O)CSc2nc(-c3ccccc3F)nc3c2c(=O)n(C)c(=O)n3C)no1 -7.56%, Cc1cc(O)c(C(c2ccccc2)N2CCC(C)CC2)c(=O)n1Cc1ccco1 (stereo not given) -12%, CC(=O)c1ccc(NC(=O)CSc2nnc3ccc(-c4ccc(F)cc4)nn23)cc1 -1.6%, CCN(C(=O)c1sc2nc3n(c(=O)c2c1C)CCCC3)c1ccccc1F -13.5%, Cc1ccc(CCNC(=O)c2cc(-c3ccccc3)n[nH]2)cc1 -18.6%, CN(C)c1ccc(C(CNC(=O)c2ccc(C(C)(C)C)cc2)N2CCCC2)cc1 (stereo not given) -12.1%, COc1ccc(CNC(=O)CCc2c(C)nn(-c3ccc(N4CCOCC4)nn3)c2C)c(OC)c1 -13.6%, Cc1cn2c(=O)cc(COc3ccc(NC(=O)c4ccc(C(C)(C)C)cc4)cc3)nc2s1 -12.4%, Cc1ccc(C)c(NC(=O)c2cnn(-c3ccc(F)cc3F)c2C2CCNCC2)c1 -19.6%, CCCC12CN3CC(CCC)(CN(C1)C3c1ccc(OCc3ccccc3)cc1)C2=O (stereo not given) -4.8%, Cc1cccc(C)c1NC(=O)CCSc1nc(-c2ccc3c(c2)OCO3)cc(C(F)(F)F)n1 -5.14%, COc1ccccc1NC(=O)CN(C)S(=O)(=O)c1cccc2cccnc12 -10.2%, Cc1ccc(Nc2ccc(N3CCN(C(=O)c4cccc([N+](=O)[O-])c4)CC3)nn2)cc1 -28.8%, O=C(CSc1ncc2c(n1)-c1ccccc1N(Cc1ccc(Cl)cc1)S2(=O)=O)c1ccc(Cl)cc1 -15.6%, Cc1cccc(NC(=O)c2cccc(N3CCCS3(=O)=O)c2)c1 49.8%, O=C(COc1ccc(F)cc1)Nc1ccc(OCc2cc(=O)n3ccsc3n2)cc1 -4.86%, Cc1ccc(CNC(=O)CN2Cc3ccccc3C2=O)cc1 5.54%, Cc1ccccc1NC(=O)Cn1c(=O)n(CCC(=O)N2CCc3ccccc3C2)c(=O)c2ccccc21 -12.1%, COc1ccc(NC(=O)CCS(=O)(=O)c2cc3c(cc2C)NC(=O)CO3)cc1Cl -6.1%, Cc1ccc(C2CC(=O)n3nc(-c4ccc(F)cc4)nc3S2)cc1 (stereo not given) 81.4% [at 11.5 µM], Cc1ccc(Cl)cc1NC(=O)c1sc2nc(C)c(C)c(C)c2c1N 19.6%, COc1ccc(C2c3c(-c4ccccc4)n[nH]c3C(=O)N2c2ccc(C(=O)O)cc2)c(OC)c1 (stereo not given) -9.17%, Cc1ccc(NC(=O)Cn2c(=O)n(CCC(=O)N3CCc4ccccc4C3)c(=O)c3ccccc32)c(C)c1 -18.2%, COc1cc(NC(=O)Cn2c(-c3ccccc3)cc(C(C)=O)c2C)cc(OC)c1 -22.2%, COC(=O)c1ccc2c(c1)sc(=NC(=O)c1ccc(S(=O)(=O)N3CCCCC3)cc1)n2C 0.55%, OCCN(CCO)c1nc(N2CCCCC2)c2nc(N(CCO)CCO)nc(N3CCCCC3)c2n1, Cc1ccc(-c2c(CN3CCN(c4cccc(C)c4C)CC3)csc2C)cc1 -17.4%, Cc1cccc(C)c1NC(=O)CSc1nc(-c2cccs2)cc(C(F)(F)F)n1 -23.3%, Cc1cn2c(=O)cc(COc3ccc(C(C)(C)C)cc3)nc2s1 -12.8%, CC(C)CCn1c(SCc2c(F)cccc2Cl)nc2ccsc2c1=O -7.74%, CN(c1nccc(=O)[nH]1)C1CCN(c2nc3ccccc3n2Cc2ccc(F)cc2)CC1, N#Cc1ccccc1Cn1c(SCC(=O)NCc2ccccc2)nc2ccccc21 -11.9%, CCc1cccc2c(-c3ccccc3)nc(SCC(=O)Nc3ccc(OC)cc3)nc12 -19.3%, CCOc1ccc2nc(NC(=O)c3nc(SC(C)C)ncc3Cl)sc2c1 -15.3%, C[N+](C)(C)CC(=O)O -5.02%, CC1CCN(C(=O)Cn2c(=O)n(-c3ccc(Cl)cc3)c(=O)c3c4c(sc32)CCC4)CC1 16.7%, O=C(Cn1c(=O)c2cccn2c2ccc(F)cc21)NCc1cccc(Cl)c1 1.65%

Source: PubChem BioAssay AID1508623 (National Center for Advancing Translational Sciences (NCATS), 2021)
